Measured values: PubChem BioAssay AID1159614 (National Center for Advancing Translational Sciences (NCATS), 2016)
The campaign covered roughly 45,000 compounds. About 65 (0.1%) were called active. Calls follow the shape of the dose curve; as a rule, active = well fitted activation curve with a large enough effect; inconclusive = small, poorly fitted or top-dose-only effect; inactive = no such curve, though single readings can be large or run the other way. The list shows a part of the results.

biological target: Galactocerebrosidase (Homo sapiens) (UniProt P54803); assay: A Novel Cell-Based Assay to Identify Small Molecules for B -Galactocerebrosidase; conditions: 145M-Twi-hGALC-G270D cells (Twitcher mouse brain line with human GALC G270D), HMU-beta-Gal fluorescence, 48 h; series mostly up to 57.5 µM; activation: at the top concentration; also: 0% is about no effect; nearly all actives have a fitted effect of over 65% in size
Procedure, shortened: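 Fluorogenic HMU-b-Gal hydrolysis (0.1 mM final, pH 5.2 citrate-phosphate with 1 mg/mL sodium taurocholate; carbonate stop buffer) measures mutant GALC activity after compound treatment of live 145M-Twi Twitcher brain cells stably carrying human GALC-G270D, with wild-type GALC line alongside; activation sought.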

Sequence of UniProt P54803 (P54803 whole entry, looked up): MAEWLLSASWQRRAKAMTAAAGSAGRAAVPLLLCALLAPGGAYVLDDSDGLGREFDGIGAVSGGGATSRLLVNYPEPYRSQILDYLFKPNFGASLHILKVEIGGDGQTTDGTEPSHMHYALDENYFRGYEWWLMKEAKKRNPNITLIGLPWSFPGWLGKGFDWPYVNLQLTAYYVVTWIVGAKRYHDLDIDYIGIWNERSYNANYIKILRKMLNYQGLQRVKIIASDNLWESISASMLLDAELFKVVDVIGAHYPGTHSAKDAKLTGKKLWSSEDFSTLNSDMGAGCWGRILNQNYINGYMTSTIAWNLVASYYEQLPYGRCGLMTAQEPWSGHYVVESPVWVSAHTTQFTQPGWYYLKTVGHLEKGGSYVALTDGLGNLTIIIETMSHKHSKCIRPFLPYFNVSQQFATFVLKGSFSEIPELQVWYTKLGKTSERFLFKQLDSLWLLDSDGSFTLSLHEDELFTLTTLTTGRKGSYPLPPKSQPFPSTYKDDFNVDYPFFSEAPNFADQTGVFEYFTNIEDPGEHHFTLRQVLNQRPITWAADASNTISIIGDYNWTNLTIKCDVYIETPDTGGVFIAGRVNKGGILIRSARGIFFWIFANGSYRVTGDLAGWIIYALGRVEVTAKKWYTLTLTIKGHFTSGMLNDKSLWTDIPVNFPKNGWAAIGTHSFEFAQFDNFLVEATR

activation, inactive:
COc1cc(C(=O)NCCS(=O)(=O)N2CCN(c3ccccc3)CC2)cc(OC)c1OC -8.87%, Cn1cc(S(=O)(=O)c2ccc(Cl)cc2)c(=O)c2cc(F)c(N3CCOCC3)cc21 -9.87%, COc1cccc(CNC(=O)CCCn2c(=O)c3cccn3c3cccnc32)c1OC 3.15%, CC(C)(C)c1ccc(OCC(=O)NC(Cc2c[nH]c3ccccc23)C(=O)O)cc1 (configuration not stated) -11%, CC(=O)Nc1ccc(NS(=O)(=O)c2cc3c4c(c2)CC(=O)N4CCC3)cc1 -12.5%, CCCCn1nc(NC(=O)c2cccc(Cl)c2)c2cc3ccc(C)cc3nc21 -18.4%, COc1ccccc1/C=C/c1nc(C#N)c(N2CCN(c3ccccc3)CC2)o1 -13.4%, COc1ccc(N2CCN(S(=O)(=O)CCNC(=O)c3ccc(OC(C)C)cc3)CC2)cc1 -12%, Cc1ccc(Nc2c(-c3ccccc3O)nc3cc(C)ccn23)cc1 -19.1%, CN(C(=O)CSc1nc2ccc(NC(=O)COc3ccccc3Cl)cc2s1)c1ccccc1 -12%, CCOc1ccc(NC(=O)CN2CCN(CC(=O)Nc3ccc(OC)cc3)CC2)cc1 -8.96%, COC(=O)c1c(SCC(=O)Nc2cc(F)ccc2F)[nH]c2ccc(C)cc2c1=O -2.01%, O=C(NCCc1ccccc1)c1cc2sccc2n1Cc1ccc(F)cc1 -7.92%, Cc1c(-c2ccc(Cl)cc2)c(=O)oc2c(CN3CCOCC3)c(O)ccc12 -17.8%, COc1ccc(-c2cc(C(F)(F)F)nc(NCCc3ccccc3)n2)cc1 4.2%, CNC(=O)c1c(NC(=O)c2ccc(S(=O)(=O)N3CCCC(C)C3)cc2)sc2c1CCC2 (configuration not stated) -13.8%, Cc1ccc(NC(=O)CSc2nc3ccc(NC(=O)c4ccco4)cc3s2)c(C)c1 -36.3%, CSc1cccc(NC(=O)C(c2ccccc2)N2Cc3ccccc3C2=O)c1 (configuration not stated) -17.1%, COC(=O)c1cccc(CN2C(=O)SC(Nc3ccc(Br)cc3)C2=O)c1 (configuration not stated) -4.27%, CCOC(=O)CN1C(C(=O)c2ccccc2)=C(OC(=O)c2ccccc2)c2ccccc2S1(=O)=O -15.1%, Cc1cc(C)cc(NC(=O)Nc2cccs2)c1 -5.37%, Cc1ccc(NC(=O)C2CCCN(S(=O)(=O)c3ccc(F)cc3)C2)cc1 (configuration not stated) -24.4%, COC(=O)C1CCN(C(c2ccccc2Cl)c2sc3nc(-c4ccco4)nn3c2O)CC1 (configuration not stated) -5.51%, CCCCOc1ccc(C(=O)Nc2onc3c2CCCC3)cc1 -17.5%, Cc1ccc(C)c(NC(=O)Cn2cnc3nc4c(cc3c2=O)CCCC4)c1 -7.29%, COc1ccccc1N1CCN(C(=O)C2CCCN(S(=O)(=O)c3ccc4c(c3)oc(=O)n4C)C2)CC1 (configuration not stated) -10.9%, CCOC(=O)c1cccc(NC(=O)c2ccc3snnc3c2)c1 -37.8%, COc1ccccc1C(=O)Nc1nc(-c2ccc(Br)cc2)ns1 -10.7%, Cc1nc2ccn(Cc3cccnc3)c(=O)c2cc1C(=O)N1CCN(c2ccccc2)CC1 -19.6%, COCCNC(=O)CSc1nnc(NC(=O)Nc2ccc(C)cc2)s1 -4%, CCc1ccc(-n2c(N3CCN(c4cccc(C)c4C)CC3)nc3ccccc3c2=O)cc1 -5.96%, COC(=O)c1sccc1S(=O)(=O)N(CC(=O)NCc1ccccc1)c1ccc(C)cc1 -8.59%, CC1CC(=O)NN=C1c1ccc(NCC(C)(C)NCC(O)COc2cc(Cl)ccc2C#N)cc1 (configuration not stated) -10.6%, Cc1ccc(Nc2nc(N)nc(N)c2S(=O)(=O)c2ccccc2)cc1 -6.2%, O=c1[nH]c2ccc(NCc3ccccc3F)cc2[nH]1 -10.8%, CCOc1ccc(CCNC(=O)c2cc3c(=O)n(C)c4ccccc4c3n2C)cc1 -3.34%, O=C(CCc1ccccc1)NCc1ccc2c(c1)CCN2C(=O)c1ccc(Cl)cc1 -4.65%, CCn1c(CNC(=O)C23CC4CC(CC(C4)C2)C3)nnc1SCC(=O)Nc1ccc(F)cc1 0.574%, CCOC(=O)c1cc(NC(=O)c2ccc(OC)cc2)c(=O)n2c1oc1ccc(Cl)cc12 -12.2%, CC1Cc2ccccc2N1C(=O)CSc1nnc(-c2cccc(Cl)c2)o1 (configuration not stated) 1.3%, O=C(NCCS(=O)(=O)N1CCN(c2cccc(Cl)c2)CC1)c1cc(=O)c2ccccc2o1 -11%, CCc1cccc(NC(=O)CC2Oc3ccc(C)cc3NC2=O)c1 (configuration not stated) 11.3%, Cc1ccc(NC(=O)CC2Sc3ccccc3NC2=O)c(Br)c1 (configuration not stated) -2.03%, COc1ccc(-n2c(=O)c3c(c4cc(OC)ccc4n3C)n(C)c2=O)cc1 14.1%, CCOc1ccc(NC(=O)Cn2cc(C(=O)c3ccc(CC)cc3)c(=O)c3ccc(C)nc32)cc1 3.83%, CCOC(=O)c1cccc(NC(=O)c2cnc(N3CCCCC3)c3ccccc23)c1 -4.35%, CC1=C(c2ccc(C)c(C)c2)S(=O)(=O)N=C1N1CCC(C(=O)NCc2ccc(Cl)cc2)CC1 -7.81%, O=C(NCCC1=CCCCC1)c1ccc2c(c1)N(Cc1ccc(Cl)cc1)C(=O)c1ccccc1S2=O (configuration not stated) -4.06%, CCN(CC)S(=O)(=O)c1ccc2c(c1)N(CC(=O)Nc1c(C)cc(C)cc1C)C(=O)C1CCCN21 (configuration not stated) -20.2%, Cc1cc(C)c(/C=C/c2onc(C)c2S(=O)(=O)N2CCC(C(=O)Nc3ccc(Cl)c(C(F)(F)F)c3)CC2)c(C)c1 -37.4%, O=C(COc1ccccc1F)Nc1ccc(Cl)c(-c2nc3ccccc3[nH]2)c1 -8.86%, COc1ccc(NC(=O)CSc2nccn2Cc2ccco2)cc1OC -13.6%, Cc1ccc(-n2c(=O)c3cccnc3n2CC(=O)NCc2ccc(F)cc2)cc1C -3.53%, Cc1ccc(CNC(=O)CN2CCCN(Cc3ccc(F)cc3)S2(=O)=O)cc1 -12.5%, Clc1ccc(-c2nc3ccccn3c2Nc2ccc3c(c2)OCCO3)s1 10.9%, Cc1ccc(N(CC(=O)N2CCN(c3cc(Cl)ccc3C)CC2)S(=O)(=O)c2c(C)noc2C)cc1 -9.41%, Cc1cccc(Cn2c(=O)n(-c3ccc(Cl)c(Cl)c3)c(=O)c3c(C)c(C)sc32)c1 -9.49%, CCc1ccc(N2CCn3c2nc2c3c(=O)n(CCc3ccccc3)c(=O)n2C)cc1 3.91%, CCOC(=O)c1cnc2ccccc2c1Nc1ccc(N2CCOCC2)cc1 -8.68%, COc1ccccc1NC(=O)c1nc(SCc2ccc(F)cc2)ncc1Cl 5.06%, CCOCCc1nnc(NC(=O)C(=O)c2cc(C)n(-c3cccc(Cl)c3)c2C)s1 -10.9%, Cc1ccc2nc(NC(=O)CSc3nccn3Cc3ccccc3)sc2c1 -29.7%
